Reference: publication PMC4336329 (PLoS ONE, 2015)
The campaign covered roughly 310,000 compounds. About 14,000 (4.5%) showed an effect of 50% or more. The effect is printed as a negative number. This is one part of the list.

Target: human ether-à-go-go-related gene (hERG) potassium channel (human, UniProt Q12809)
Experiment: primary screen, population patch clamp on CHO cells stably expressing hERG
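Further: peak tail current of the secondary pulse compared with the same well before compound.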

Chain of human ether-à-go-go-related gene (hERG) potassium channel (Q12809 whole entry, looked up): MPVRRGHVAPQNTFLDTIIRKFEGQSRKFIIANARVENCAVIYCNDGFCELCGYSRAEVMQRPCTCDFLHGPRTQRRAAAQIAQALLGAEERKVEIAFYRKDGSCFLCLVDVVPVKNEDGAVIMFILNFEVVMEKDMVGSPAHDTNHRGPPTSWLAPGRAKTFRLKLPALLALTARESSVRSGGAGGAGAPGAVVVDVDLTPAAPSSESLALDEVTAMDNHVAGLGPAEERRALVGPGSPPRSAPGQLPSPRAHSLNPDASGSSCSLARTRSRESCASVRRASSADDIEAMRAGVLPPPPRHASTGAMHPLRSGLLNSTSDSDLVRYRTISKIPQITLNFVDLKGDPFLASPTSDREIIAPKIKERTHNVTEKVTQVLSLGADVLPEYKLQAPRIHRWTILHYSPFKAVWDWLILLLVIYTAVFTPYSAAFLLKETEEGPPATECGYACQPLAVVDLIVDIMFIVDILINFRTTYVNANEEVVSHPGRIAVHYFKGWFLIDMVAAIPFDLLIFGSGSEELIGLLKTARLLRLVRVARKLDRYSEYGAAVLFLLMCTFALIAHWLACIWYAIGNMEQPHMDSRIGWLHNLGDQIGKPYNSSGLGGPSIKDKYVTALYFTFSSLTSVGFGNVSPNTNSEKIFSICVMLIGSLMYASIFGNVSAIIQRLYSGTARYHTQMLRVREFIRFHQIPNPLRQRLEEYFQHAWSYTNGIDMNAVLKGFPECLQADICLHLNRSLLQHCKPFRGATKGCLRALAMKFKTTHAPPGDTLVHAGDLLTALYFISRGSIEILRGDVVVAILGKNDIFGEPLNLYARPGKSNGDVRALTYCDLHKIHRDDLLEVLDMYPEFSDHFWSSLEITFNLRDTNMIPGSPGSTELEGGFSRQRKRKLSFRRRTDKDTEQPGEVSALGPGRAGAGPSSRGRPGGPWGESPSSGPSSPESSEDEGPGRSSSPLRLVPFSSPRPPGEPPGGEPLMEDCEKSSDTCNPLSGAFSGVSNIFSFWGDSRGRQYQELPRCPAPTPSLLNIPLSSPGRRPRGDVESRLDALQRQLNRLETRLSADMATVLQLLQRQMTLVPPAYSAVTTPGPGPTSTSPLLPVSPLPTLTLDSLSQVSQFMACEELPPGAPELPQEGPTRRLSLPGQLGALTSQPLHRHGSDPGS

| Structure (SMILES) | hERG current change (%, negative = inhibition) at 10uM |
| --- | --- |
| COc1ccc(C(=O)N2C(=S)NC(=O)/C2=C\c2ccc(C)cc2)cc1 | -2.42% |
| O=C(N/N=C/c1ccc[nH]1)c1sc2ccccc2c1Cl | -17.9% |
| NC(=O)C1CCN(c2nnnn2-c2ccccc2)CC1 | 11.4% |
| COc1cccc(-n2nnc3c(=O)n(CC(=O)N4CCC(Cc5ccccc5)CC4)cnc32)c1 | 9.22% |
| CC1CCN(CCCCOc2ccccc2Br)CC1 | -48.9% |
| O=C(COc1ccc(/C=N/NC(=O)c2cc3ccccc3o2)cc1Br)Nc1ccccc1 | 19.3% |
| COc1ccc(-c2csc(N(C)C(=O)c3ccco3)n2)cc1 | 10.8% |
| C/C(N)=C(/C#N)C(=O)CSc1nc2ccccc2c(=O)n1-c1ccc(C)c(Cl)c1 | 4.29% |
| CC(C)NC(=O)Cn1c(SCC(=O)N2c3ccccc3CC2C)nc2ccccc21 (stereo not drawn) | 3.85% |
| COc1ccc(C2(c3ccc(OC)cc3)NC(=O)N(CC(=O)Nc3ccc(OC)c(OC)c3)C2=O)cc1 | -2.49% |
| O=c1c2ccccc2nc(/C=C/c2ccccc2F)n1-c1ccccc1O | 18.6% |
| COc1ccc(-c2cc(C(=O)Nc3c(C)n(C)n(-c4ccccc4)c3=O)c3ccccc3n2)cc1OC | 28.8% |
| Cc1nc(N(C)C)ncc1C(=O)O | 6.75% |
| COc1ccc(NC(=O)Nc2nnc(C(C)C)s2)cc1 | -4.08% |
| CCCn1nc2cc(C(=O)NCc3ccccc3OC)ccc2c1OCC | 7.72% |
| CCOc1cc(/C=C2/NC(=O)N(CC(=O)Nc3cccc(C)c3)C2=O)ccc1O | 2.36% |
| CCOC(=O)Cc1csc(NC(=O)c2ccc(C)cc2)n1 | -9.73% |
| CC1(C)CC(=O)C=C(c2ccc(OC(F)(F)F)cc2)C1 | -34.3% |
| Cc1c(C(C)CCCO)oc(=O)c2c1Oc1c(C)c(C(C)C[C@@H](C)O)oc(=O)c1C2 (stereo partly drawn) | 4.92% |
| Cc1ccc(C(=O)NC2CCCCCC2)o1 | -14.2% |
| COc1ccc(-n2c(Cc3cccn3C)nnc2SCC(=O)N2CCCC2)cc1 | -9.54% |
| CC(C)CNc1nc(S(=O)(=O)c2ccccc2)c(Cl)s1 | -11.5% |

| Structure (SMILES) | hERG current change (%, negative = inhibition) at 10uM |
| --- | --- |
| COc1cccc(CNC(=O)c2ccc(NS(=O)(=O)c3ccc4[nH]c(=O)[nH]c4c3)cc2)c1 | 21.4% |
| CCN(CC)C(=O)COc1ccc(CC(=O)O)cc1OC | 22.3% |
| CN1CCCN(C(=O)COc2ccc(F)cc2Cl)CC1 | -12.5% |
| Cc1ccc(O)c(NC(=S)NC(=O)c2ccc(-c3ccc(Cl)cc3)o2)c1 | 15.8% |
| CCOC(=O)c1c(NC(=S)Nc2ccc(F)cc2)sc2c1CCC2 | -6.44% |
| CC(=O)Nc1ccc(S(=O)(=O)NC2CC2)cc1 | 9.08% |
| COC(=O)c1ccc(NC(=O)CN2CCN(c3ccccc3C)CC2)cc1 | -10.6% |
| COc1cccc(CNc2ncnc3ccc(-c4c(C)noc4C)cc23)c1 | -45.9% |
| CCNC(=O)CC1C(=O)N(c2ccc(F)cc2)C(=O)N1CCC(C)C (stereo not drawn) | -3.7% |
| Cc1ccc(C)c(OCCC(=O)NNC(=O)c2ccccc2F)c1 | -8.61% |
| Cc1ccccc1C(C)NC(=O)COC(=O)Cn1cc(C(F)(F)F)ccc1=O (stereo not drawn) | 3.43% |
| O=C(NC1CCCCCC1)C1c2ccccc2C(=O)N1Cc1cccs1 (stereo not drawn) | -34.6% |
| Cc1ccc2c(c1)N(C(=O)CCC(=O)N1CCC3(CC1)OCCO3)CCO2 | 3.09% |
| COc1cc(NS(=O)(=O)c2ccc3c(c2)C(C)(C)C(=O)N3C)cc(OC)c1 | -10% |
| CCNC(=O)O/N=C1\CCCCC1c1ccc([N+](=O)[O-])cc1[N+](=O)[O-] (stereo not drawn) | -4.84% |
| COc1cccc(C(=O)/C=C/Nc2ccc(S(=O)(=O)Nc3ccc(C(C)=O)cc3)cc2)c1 | 21.4% |
| O=C(CN1C(=O)NC2(CCCC2)C1=O)Nc1nc2ccc(F)cc2s1 | -23.8% |
| O=C(NCCN1CCOCC1)c1ccc(F)cc1 | 1.66% |
| Cc1ccc(NC(=S)N2CCC(N(C)CC3CCCO3)CC2)c(C)c1 (stereo not drawn) | -17.8% |
| Cc1sc(NC(=O)c2ccccc2F)c(CN2CCCCC2)c1C | -0.974% |
| CC(C)N1CCc2c(sc(NC(=O)Cc3ccccc3)c2C(N)=O)C1.Cl | -11.5% |
| COc1ccc(NC(=S)NNC(=O)CNc2ccc(Cl)cc2)cc1 | -5.15% |

| Structure (SMILES) | hERG current change (%, negative = inhibition) at 10uM |
| --- | --- |
| CCCCS(=O)(=O)NC1=NCN(CCO)CN1 | 14.4% |
| CCN(CC)CCN(C(=O)C1CCCCC1)c1nc2cc3c(cc2s1)OCO3.Cl | -14.6% |
| COc1ccc(S(=O)(=O)N2CCOC2CNC(=O)C(=O)NCCc2ccc(OC)c(OC)c2)cc1 (stereo not drawn) | -4.65% |
| CCN(Cc1cc2cc(C)ccc2[nH]c1=O)C(=O)c1cccc([N+](=O)[O-])c1 | -37.9% |
| COc1ccc(CCNC(=O)CSc2nc(=O)n3cc(C)ccc3n2)cc1OC | 12.9% |
| O=C(CN1C(=O)S/C(=C\c2cccs2)C1=O)Nc1ccc(C(=O)O)c(O)c1 | 12.8% |
| OC1CCCN(CC(O)COc2ccc(-c3ccccc3)cc2)C1 (stereo not drawn) | -52.9% |
| Cc1ccc(C(=O)NCCCNC(=O)COc2ccccc2Cl)cn1 | -2.99% |
| O=C(NCCc1ccccn1)C1CCN(S(=O)(=O)c2ccc3ccccc3c2)CC1 | -22.9% |
| Cc1nc2ccc(S(=O)(=O)NC(C(=O)N3CCn4c3nc3ccccc34)C(C)C)cc2s1 (stereo not drawn) | 3.89% |
| COc1ccc(CNC(=O)C(c2cccc(C)c2)N(C(=O)c2csnn2)C2CC2)cc1 (stereo not drawn) | -38.8% |
| CNC(=O)CSc1nc2ccccc2c(=O)n1C1CCCCC1 | -14.6% |
| COC(=O)/C(C#N)=C/c1cc(C)sc1C | 17.7% |
| C#CCOCCOCCOCCNc1nc(N2CCN(C(=O)C([C@@H](C)CC)n3cc(C(N)Cc4ccc(O)cc4)nn3)CC2)nc(N2CCN(C(=O)[C@H](CCC(=O)O)n3cc(C(N)Cc4ccc(O)cc4)nn3)CC2)n1.Cl (stereo partly drawn) | 14.6% |
| O=C(CSC1=NS(=O)(=O)c2ccccc2N1)NCc1ccc(F)cc1 | -2.68% |
| CC1(C)Cc2c(sc(NC(=O)C(=O)NCCCN3CCOCC3)c2C#N)CO1 | 4.1% |
| CNc1c(NC(=O)c2ccc3c(c2)OCO3)c(=O)oc2ccccc12 | 24.9% |
| CC(C)(C)NC(=O)CSc1ccc(S(=O)(=O)N2CCOCC2)cn1 | -1.22% |
| O=C(/C=C/c1ccccc1Cl)Nc1cccc(S(=O)(=O)NC2=NCCCCC2)c1 | -44.9% |
| CN(c1ccc(C(=O)NCC2CCCO2)cc1)S(=O)(=O)c1ccccc1 (stereo not drawn) | 6.84% |
| Cc1ccc(OCCN(C)C(=O)C2CCC(=O)N(CC3CCCCC3)C2)cc1 (stereo not drawn) | -49.1% |
| COc1ccccc1-n1c(-c2ccc(F)cc2)coc1=O | 4.72% |

| Structure (SMILES) | hERG current change (%, negative = inhibition) at 10uM |
| --- | --- |
| COc1cc(C2CC(=O)OC3=C2C(=O)CC(C)(C)C3)cc(OC)c1OC (stereo not drawn) | 16.8% |
| OCC1(CO)COC(CCc2ccccc2)=N1 | 16.1% |
| S=C(c1ccc(-c2cccc(Cl)c2)o1)N1CCCCC1 | 21.7% |
| COC(=O)c1ccc(NC(=O)c2cccc(C)c2)cc1 | -4.33% |
| CC1CC(C)CN(CCCNC(=O)C2CCCN(S(=O)(=O)N3CC(C)CC(C)C3)C2)C1 (stereo not drawn) | -61% |
| Cc1ncc(CN2CCCCC2C(=O)Nc2ccc(Oc3ccccc3)nc2)cn1 (stereo not drawn) | -0.713% |
| O=C(Cn1ncc2c([nH]c3ccccc32)c1=O)N1CCc2ccccc2C1 | 14.5% |
| CCCn1nnc(NC(=O)/C=C/c2ccccc2)n1 | 2.12% |
| Cc1ccc(C(C(=O)NC(C)(C)C)N(Cc2cccs2)C(=O)c2csnn2)cc1 (stereo not drawn) | -5.79% |
| CCOC(=O)c1c(C)nsc1NCc1ccccc1 | 5.94% |
| COc1cccc(C(=O)Nc2ccc(F)cc2F)c1 | 1.76% |
| COc1ccc(S[C@@H](CCN2CC[C@H](O)CCC2=O)c2ccccc2)cc1 | -3.2% |
| O=S(=O)(c1ccc2nc(-c3ccccc3)[nH]c2c1)N1CCN(c2ccc(Cl)cc2)CC1 | -1.2% |
| COc1cccc(NC(=O)Nc2ccncc2)c1 | 5.96% |
| CCCSC1=C(C#N)C(c2cc(OC)ccc2OC)CC(=O)N1 (stereo not drawn) | 5.53% |
| COc1ccc(CC(=O)Nc2nc(-c3cccnc3)cs2)cc1 | 6.34% |
| CN(C)c1ccc(N2C(=O)CC(c3ccccc3)CC2=O)cc1 | 7.37% |
| Cn1c(C(=O)OC(C(=O)NCC2CCCO2)c2cccnc2)cc2sccc21 (stereo not drawn) | -11.8% |
| O=C1c2cccc3c([N+](=O)[O-])ccc(c23)C(=O)N1O | 11.4% |
| Cc1cccc(C)c1NC(=O)C(C)N (stereo not drawn) | -15.4% |
| CCS(=O)(=O)N1CCC(C(=O)NCCc2ccc(OC)c(OC)c2)CC1 | -8.71% |
